# “And” between values parts separate entries of the source, which are not always exact repeats. Equal values may be shown once. Out of some 420,000 compounds screened, about 50,000 (12%) were called active. The shares of active, inactive and inconclusive entries below differ from those in the screen. Calls follow the shape of the dose curve; as a rule, active = well fitted inhibition curve with a large enough effect; inconclusive = small, poorly fitted or top-dose-only effect; inactive = flat fitted curve, though single readings scatter. Potencies beside an inconclusive call are fits to weak or partial responses and may not hold up.
# Assay: qHTS for Inhibitors of human tyrosyl-DNA phosphodiesterase 1 (TDP1): qHTS in cells in presence of CPT; also: nearly all actives have a fitted effect of over 55% in size
# Conditions: chicken DT40 Tdp1-/-;hTDP1 cells + 20 nM CPT, ATP luminescence, 48 h; activity change, negative = growth inhibition: at 46.2 µM (top of the series) unless noted
# Summary of the method: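 Cell growth measured by CellTiter-Glo luminescence after a minimum 48 h, 37 C compound exposure with 20 nM CPT in Tdp1-knockout DT40 cells stably expressing hTDP1, seeded 400/well; qHTS titration format.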
# % is scaled to controls: 0 for no effect and ±100 for the full control effect; potency is read from the fitted curve at half-maximal effect; tags tell the direction and shape of the fitted curve.
SMILES,Potency,"activity change, negative = growth inhibition"
CCN(CC)CCNc1nc(-n2nc(C)cc2C)nc2sc3c(c12)CC(C)(C)OC3,"inconclusive: 16.4 µM [inhibitor, partial curve]",
OC(c1ccc(F)c(F)c1)c1ncc(-c2cccc(F)c2)[nH]1 (stereo not given),"inconclusive: 32.6 µM [inhibitor, single point]",
C/C=C(\C)CN1CCN(c2cc(C)ccc2C)CC1,"inconclusive: 0.517 µM [inhibitor, full curve, poor fit]",
CCOc1ccc(C2NC(=S)NC3=C2CCc2ccccc23)cc1 (stereo not given),"inconclusive: 29.1 µM [inhibitor, single point]",
Cc1ccc(NC(=O)Cn2c(=O)n(CCc3ccccc3)c(=O)c3sc4ccccc4c32)cc1C,,inactive: -1.56%
CC1CN(C(=O)c2cc(-c3ccc(Cl)s3)nc3ccccc23)CC(C)O1 (stereo not given),"inconclusive: 29.1 µM [inhibitor, single point]",
N#CCN1C(=O)C2CCCN2c2ccc(S(=O)(=O)N3CCOCC3)cc21 (stereo not given),,inactive: -7.74%
c1ccc(SCCN2CCN(c3ccccc3)CC2)cc1,,inactive: -15.8%
Cc1noc(C)c1-c1ccc2ncnc(NCCN3CCOCC3)c2c1,"inconclusive: 29.1 µM [inhibitor, single point]",
CCN(CC)c1ccc(S(=O)(=O)N2CCOCC2)cc1NC(=O)Cn1nc(C)c([N+](=O)[O-])c1C,"inconclusive: 18.4 µM [inhibitor, single point]",
C#CCCOC(=O)Nc1ccccc1,,inactive: -21.2%
Cc1cc(C)c(NC(=O)CNC(=O)c2ccc3ncsc3c2)c(C)c1,,inactive: -1.22%
O=C(N/N=C\c1c(O)ccc2ccccc12)c1ccc(O)cc1,"inconclusive: 29.1 µM [inhibitor, single point]",
O=C(NCc1cccc(Cl)c1)c1oc(=O)c2ccccc2c1-c1ccccc1,,inactive: 4.29%
Cc1nn(CCCC(=O)NCCc2ccc(Cl)cc2)c(=O)c2nn(-c3ccccc3)c(C)c12,"inactive and inconclusive: 29.1 µM [inhibitor, single point]",
COc1ccc(NC(=O)c2ccc(CN3CCc4ccccc4C3)cc2)cc1OC,"inconclusive: 13 µM [inhibitor, single point]",
COc1ccccc1CNS(=O)(=O)c1cc(-c2cc(C)no2)ccc1C,"inconclusive: 29.1 µM [inhibitor, single point]",
Cn1c(N)c(C(=O)COC(=O)/C=C/c2cccc(F)c2)c(=O)n(C)c1=O,,inactive: -22.6%
CCc1nc(-c2ccc(OC)c(OC)c2)cc2cc(OC)c(OC)cc12,active: 16.4 µM,
O=C(NCc1ccccc1F)c1cccc(NC(=O)N2CCSc3ncccc32)c1,active: 23.1 µM,
